The subject of this series is ATP. The experiment in a line: switch fluorescence ratio, 500 uM ATP over buffer (Cy3 cluster intensity, sum of 5 cycles each) (fold (ratio)); higher = stronger signal-on switching upon ATP binding; sequences stand for … in TCGTCGGCAGCGTCAGATGTGTATAAGAGACAGTTTTTTTTTTTTTTTTTTTTTTTTT…TC. The conditions noted are these: aptamer strand: ATP DNA aptamer (quencher-CACCTGGGGGAGTATTGCGGAGGAAGG + anchor), 100 nM annealed; ATP concentration: 500 uM; one replicate. A digest of the protocol:
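Exposure to 500 uM ATP lasted 15 min at 22 °C before imaging, and a selection-buffer image was taken beforehand, for Cy3-labelled switching-strand clusters on a modified Illumina MiSeq flow-cell annealed to 100 nM quencher-labelled ATP aptamer. Five buffer/ATP cycles were run with NaOH stripping and re-annealing between them. The fluorescence ratio per cluster is summed target-cycle over summed buffer-cycle Cy3 intensity, averaged per switch-domain sequence. Clusters outside 100-1000 RFU were excluded.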

This is an account of results in the supplement of paper PMC10126150.

Sequences with one replicate were seen in a single cluster, so their values are uncertain.

As to AAGTTAGTCC, the switch fluorescence ratio came out at 1.06. Take CCTGATTGCG: the switch fluorescence ratio worked out at 1.11.

With ATCGTATTTA, the switch fluorescence ratio was found to be 1.02. With TGTGGCGCCC, the switch fluorescence ratio was 0.955. As to CATACACGTT, the switch fluorescence ratio was determined as 1.04. As to AGGCGTCATG, the switch fluorescence ratio amounted to 1.03. For GTGAAAGTGA, the switch fluorescence ratio is 0.934. As for CGCTGATCGT, the switch fluorescence ratio is 1.03. On to GAGAAACGGA, for which the switch fluorescence ratio was found to be 1. For GGGGTCGCTT the value was 1; for TTTTGCAAAA, 1.03; for GACTAAGGG, 0.995. ATTGAGTTGC: the switch fluorescence ratio amounted to 0.929.

For the sequence AACGGCCTAT, the switch fluorescence ratio is 1. For CCTTCTCTT the value was 1.27; for GAGGGTCGGA, 0.964; for CAGATACATA, 1.06. In the case of TTAATGTCA, the switch fluorescence ratio worked out at 0.988. As for TAATCGTAGT, the switch fluorescence ratio was 1.03. For GTCTCTAGGA the value was 0.963; for CGTCTGCAGG, 1.12. Take CCTGACTGAG: the switch fluorescence ratio turned out to be 1.07. As to CGCTCAACAC, the switch fluorescence ratio came out at 2.3. As for AATCGTTAGA, the switch fluorescence ratio was 0.987. In the case of TCAATTAGTT, the switch fluorescence ratio came out at 0.963. With GCCTGGTAAG, the switch fluorescence ratio is 1.01. For CATGCATATC, the switch fluorescence ratio is 1.52. The result for CCGGGATGGC reads 1.54; that for TCCCAAATAC, 2; that for TTCCCCTGGG, 1.37.

With AAGGAATAG, the switch fluorescence ratio was 1.12. The result for TATTACCAGG reads 1.4. As for CGCTGGGATG, the switch fluorescence ratio was 1.02. Regarding GTTAATTCCT, the switch fluorescence ratio is 1.01. CGACGTGGTC: the switch fluorescence ratio amounted to 1.12. As to AAGCGCTATT, the switch fluorescence ratio was determined as 0.966. On to TCTTTTGATT, for which the switch fluorescence ratio turned out to be 1.03.

With TATACCTACT, the switch fluorescence ratio is 1.31. On to TGCATCATTT, for which the switch fluorescence ratio was 0.966. As for CTGCTGCACA, the switch fluorescence ratio came to 1.25.

AAAGACAGGT: the switch fluorescence ratio worked out at 1.04. For GGTATACAGT the value was 0.987. As for ACGCGGGAGA, the switch fluorescence ratio turned out to be 1.05. Turning to ATCCAATGGA, the switch fluorescence ratio came out at 1.02.

With CAATGGGATT, the switch fluorescence ratio was found to be 1.02.

Consider ATGTGCTAGT, for which the switch fluorescence ratio stood at 1. For GGTCAGATT, the switch fluorescence ratio stood at 1. For the sequence GTGTGGTTGG, the switch fluorescence ratio came to 0.989. Turning to CGTCAGTCGT, the switch fluorescence ratio worked out at 0.993.

In the case of TGCCAAAAGG, the switch fluorescence ratio amounted to 1.02.

Turning to ATAGCCATA, the switch fluorescence ratio was 1. Turning to TACCCTGTGA, the switch fluorescence ratio turned out to be 1.

Regarding GGCGGCGTC, the switch fluorescence ratio worked out at 0.975.

ACCTGCTAG: the switch fluorescence ratio is 0.986. CAGAACTTTC: the switch fluorescence ratio was found to be 1.1. Turning to GGCCCAGATG, the switch fluorescence ratio turned out to be 2.24. In the case of TGACTCTGGG, the switch fluorescence ratio is 1.01. The result for TAAGTGAGCT reads 1.01. For the sequence TGGCCAGTCG, the switch fluorescence ratio was found to be 1. For GAATTGTTGG, the switch fluorescence ratio was 0.995. Turning to TTAAACGGCT, the switch fluorescence ratio is 1.03.

As for GAAGAGAATT, the switch fluorescence ratio came to 1.01. For TTATTCTAGC, the switch fluorescence ratio turned out to be 0.981. For GTTCGTTGCT the value was 0.952; for GTAGTTTTCC, 0.998; for CAAGATGCGG, 1.01. Turning to CTGGTATTGA, the switch fluorescence ratio turned out to be 1.01.

Take GGAATCAATT: the switch fluorescence ratio amounted to 1.05. Turning to GATCAGCCAG, the switch fluorescence ratio is 1.03.

TGAGATCGGG: the switch fluorescence ratio turned out to be 1. As for TACTTTATGG, the switch fluorescence ratio stood at 0.963. For GTAATTGCAT the value was 1.02; for ATAGCTGGGC, 1.01; for CGGAGCACGT, 1.47. On to GAGTTCCTTT, for which the switch fluorescence ratio is 0.998.

In the case of TTGTGTCTAC, the switch fluorescence ratio was 0.981. With TGTTACTCTA, the switch fluorescence ratio came to 1.07.

As for CACTGAGTCC, the switch fluorescence ratio was 1.19. CGTAAGGGG: the switch fluorescence ratio is 0.988. GATCGTAGT: the switch fluorescence ratio worked out at 0.977. The result for GAAGTACTAG reads 1.18; that for AGTCAGCCTT, 1.07. For TATTGAGTCC, the switch fluorescence ratio turned out to be 0.995.

On to ATTGGCAG, for which the switch fluorescence ratio is 0.999. In the case of TAAGCGCACT, the switch fluorescence ratio worked out at 1.03. As for TGCATTGCGT, the switch fluorescence ratio stood at 1.04. In the case of AGTGGAGGTA, the switch fluorescence ratio came to 0.964. With AAATCGAAAG, the switch fluorescence ratio is 1.04. For the sequence CGACAGACTT, the switch fluorescence ratio stood at 1.08. In the case of GACACTCCAC, the switch fluorescence ratio was found to be 1.46.

ACCTGGGTG: the switch fluorescence ratio was determined as 2.27. As for CGAGGGTTTC, the switch fluorescence ratio turned out to be 1.05. The result for CATGGATTC reads 0.989; that for TCTGGAATGG, 1.49; that for ATCGCTCTC, 1.91. Take ACAATGTTC: the switch fluorescence ratio was found to be 1. Consider TCCCCCTGGG, for which the switch fluorescence ratio was determined as 1.39. Consider CCGGGAAATG, for which the switch fluorescence ratio turned out to be 1.56. As to GGTTAGCCGT, the switch fluorescence ratio was 1.02. CCCACACTCT: the switch fluorescence ratio was 1.07. TGGATTAGTG: the switch fluorescence ratio was determined as 0.973. For CCTATCTAAT, the switch fluorescence ratio amounted to 1. For GCACTGTTTC, the switch fluorescence ratio was 1.05.

Take ACTTTCTCCA: the switch fluorescence ratio was determined as 1.41. As for AGTGCTGCTT, the switch fluorescence ratio is 0.97. Consider GAGTAAACGG, for which the switch fluorescence ratio is 1.01. The result for GGTGTTTGAT reads 0.975; that for CCAGCGCGTA, 1.16; that for GGCTTCGTTG, 0.993. For CGCCCAAGCG, the switch fluorescence ratio worked out at 1.01. As to CATGATACTA, the switch fluorescence ratio was 1.01. The result for TTTAGCCC reads 0.992; that for GAGGCGCCAG, 0.966; that for CTGACAAAGT, 1.12. With GGATTCGGT, the switch fluorescence ratio was determined as 0.972.

Regarding CTTGTGTCGT, the switch fluorescence ratio was 1.01.

On to TCGCTCCGCG, for which the switch fluorescence ratio is 1.21. The result for ATTACTCTTG reads 1.05. Turning to CTTATCACGA, the switch fluorescence ratio was 1.02.

Take TACCGTTTTC: the switch fluorescence ratio was 0.984.
